Source: PubChem BioAssay AID720536 (National Center for Advancing Translational Sciences (NCATS), 2013)
Among all 1,600 compounds or so, about 650 (41%) were called active. So high a share suggests a set chosen from earlier hits. The inconclusive results got no clear call from the source; some entries with a clear call stand among them for comparison. Calls follow the shape of the dose curve; as a rule, active = well fitted inhibition curve with a large enough effect; inconclusive = small, poorly fitted or top-dose-only effect; inactive = no such curve, though single readings can be large or run the other way. No potency is given beside an inconclusive call; the fits are too rough.

Experiment: qHTS for Inhibitors of TGF-b: CCL64 Cells Orthogonal Assay for Cherry Picks; also: nearly all actives have a fitted effect of over 65% in size;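 as to activity, negative = inhibition: 0% = stimulated DMSO wells and full inhibition = unstimulated wells without TGF-beta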
Conditions: CCL64 CAGA-GFP reporter, TGF-b stimulated, GFP fluorescence, 18 h; activity, negative = inhibition: at 46.1 µM (top of the series)
In short: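 Readout was total-well GFP fluorescence from summed single-cell values after 18 h TGF-beta stimulation (500 pg/mL) of CCL64 CAGA-GFP cells in 1% FBS, compounds added 2 h after plating. Normalized to unstimulated and stimulated-DMSO wells; curves classified by fit quality and efficacy.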
Potency is read from the fitted curve at half-maximal effect; tags tell the direction and shape of the fitted curve.

Row | SMILES | Potency | activity, negative = inhibition
1 | CC(=O)c1ccc(-c2cnc3c(NC=O)cc(-c4cccc(NS(C)(=O)=O)c4)cn23)cc1 | active: 5.17 µM | –
2 | COc1ccc(Cc2c(-c3cccc(Br)c3)nc3ccc(Br)cn23)c(C)c1 | inconclusive [inhibitor, partial curve, poor fit] | –
3 | O=C(Nc1cccc(Cl)c1)c1ccc(F)c(S(=O)(=O)NCc2cccs2)c1 | inconclusive [inhibitor, single point] | –
4 | COc1cc(O)cc(O)c1C(=O)/C=C/c1ccccc1 | inconclusive [inhibitor, single point] | –
5 | COc1cc(Nc2nc(-c3ccccc3)c3cc(C)ccc3n2)cc(OC)c1OC | inactive | –
6 | Cc1ccc(-c2csc(Cc3nc(-c4cc5ccccc5oc4=O)cs3)n2)cc1 | inactive | –
7 | COCCn1c(SCc2nc3scc(-c4ccc(Cl)cc4)c3c(=O)[nH]2)nnc1-c1cccc(C)c1 | inconclusive [inhibitor, single point] | –
8 | O=C(CSc1nc(N2CCCCC2)nc(N2CCCCC2)n1)N1CCN(c2ccccc2)CC1 | inconclusive [inhibitor, partial curve, poor fit] | –
9 | CN(Cc1cccc(Cl)c1Cl)C(=O)c1cccc(S(=O)(=O)N2CCN(Cc3ccccc3)CC2)c1 | inconclusive [inhibitor, single point] | –
10 | Nc1ncc(Br)cc1S(=O)(=O)Nc1cc(C(F)(F)F)cc(C(F)(F)F)c1 | inconclusive [inhibitor, single point] | –
11 | O=C(COC(=O)c1c2c(nc3ccccc13)/C(=C\c1cccs1)CCC2)Nc1ccccc1 | inconclusive [inhibitor, full curve] | –
12 | Cc1ccc(NC(=O)Cc2cc(C(=O)O)c3ccccc3n2)c(C)c1 | active: 7.31 µM | –
13 | O=C(c1ccc(CSc2nc3ccncc3[nH]2)cc1)N1CCN(c2cccc(Cl)c2)CC1 | inconclusive [inhibitor, single point] | –
14 | COc1cccc(CN(C(=O)Cc2c[nH]c3ccccc23)C(C(=O)NC2CCCCC2)c2ccc(C)o2)c1 (centres undefined) | inconclusive [inhibitor, partial curve, poor fit] | –
15 | O=C(C(=O)c1cc(Br)ccc1O)c1cc(Br)ccc1O | active: 4.61 µM | –
16 | COc1ccccc1Cc1c(-c2ccc(F)cc2)nc2ccc(Br)cn12 | inconclusive [inhibitor, partial curve, poor fit] | –
17 | COc1ccc2oc(=Nc3cc(F)ccc3F)c(C(N)=O)cc2c1 | inactive | –
18 | CC1(C)Cc2ccccc2C2=NNC(=O)C2=N1 | inconclusive [inhibitor, single point] | –
19 | C/C(=N\NC(=O)c1ccccc1-n1cccc1)c1ccccn1 | inconclusive [inhibitor, partial curve, poor fit] | –
20 | Cn1cnnc1Sc1ccc(/C=C/C(=O)c2ccc(O)cc2)cc1[N+](=O)[O-] | active: 23.1 µM | –

Row | SMILES | Potency | activity, negative = inhibition
21 | O=C(Nc1ccc(F)cc1)Nc1csc2ccccc12 | inconclusive [inhibitor, single point] | –
22 | Oc1cccc(Nc2nc(-c3ccccc3Cl)nc3ccccc23)c1 | inconclusive [inhibitor, single point] | –
23 | Cc1ccc(C(C)C)cc1NC(=O)Nc1ccc([N+](=O)[O-])cc1 | active: 18.4 µM | –
24 | CC[C@]12c3[nH]c4cc(-c5ccco5)ccc4c3CCN1C(=O)[C@@H](CC(=O)NCC13CC4CC(CC(C4)C1)C3)C[C@@H]2C(=O)N1CCN(C(=O)c2ccco2)CC1 | inconclusive [inhibitor, partial curve, poor fit] | –
25 | CC(=O)Nc1ncc(Cc2cc(Cl)ccc2Cl)s1 | inactive | –
26 | CC(=O)Nc1ccc(S(=O)(=O)N2CCN(CC(O)COc3ccc4ccccc4c3)CC2)cc1 (centres undefined) | inactive | –
27 | CC1Sc2ccc(S(=O)(=O)N3CCC(C(=O)Nc4ccc(Cl)cc4)CC3)cc2NC1=O (centres undefined) | inconclusive [inhibitor, partial curve, poor fit] | –
28 | CCOc1ccc(CCN2C(=S)N([C@@H](CC(C)C)CN3CCCC3CN3C(=S)NC[C@@H]3Cc3ccc(O)cc3)C[C@@H]2CC(C)C)cc1 (some centres undefined) | inconclusive [inhibitor, partial curve] | –
29 | Cc1ccc(-c2csc(N(CCO)CCCn3c(C(F)(F)F)nc4cc(C(F)(F)F)ccc43)n2)cc1 | inconclusive [inhibitor, single point] | –
30 | Cc1ccccc1CCNC(=O)c1ccc(Cl)c(S(=O)(=O)N2CC(C)OC(C)C2)c1 (centres undefined) | inconclusive [inhibitor, single point] | –
31 | O=C(Nc1ccc2oc(-c3ccncc3)nc2c1)c1ccc([N+](=O)[O-])o1 | – | inconclusive: -36.8% [inhibitor]
32 | CCO[C@H]1OC(C(=O)Nc2ccccc2)=C[C@@H](c2ccc(C(F)(F)F)cc2)[C@@H]1CCCO | inconclusive [inhibitor, single point] | –
33 | CCOC(=O)CCc1ccc(NC(=O)/C=C/c2ccc([N+](=O)[O-])o2)cc1 | inconclusive [inhibitor, single point] | –
34 | COc1cc(NC(=O)COC(=O)c2ccc([N+](=O)[O-])s2)cc(OC)c1OC | inactive | –
35 | Cc1cccc(C2(c3cccc(C)c3)CC2C(=O)Nc2ccc([N+](=O)[O-])cc2O)c1 (centres undefined) | active: 7.31 µM | –
36 | CNc1nc(NCc2ccc(C)cc2C)c2sccc2n1 | inconclusive [inhibitor, single point] | –
37 | CCC(=O)Nc1c(S(=O)(=O)c2ccccc2)c2nc3ccccc3nc2n1C(C)c1ccccc1 (centres undefined) | inconclusive [inhibitor, partial curve, poor fit] | –
38 | O=C(Cc1cccs1)Nc1nc2c(ccc3ccccc32)s1 | – | inconclusive: -28.5% [inhibitor]
39 | C[C@]12c3[nH]c4ccc(Cl)cc4c3CCN1C(=O)[C@@H](CC(=O)NCCC1=CCCCC1)C[C@@H]2C(=O)N1CCOCC1 | inconclusive [inhibitor, partial curve, poor fit] | –
